The source gives no read counts; variants with many changes may rest on few reads.
B1: LINE1-mini (parent)
chain: GGCAGAGCUCAACACAGCGUGGCAAAGUGGCUGUGGCUAGACUGCC

Variants of: B1
Experiment: self-cleavage, relative activity (ratio to wild type); higher = more cleavage; in vitro, sequencing; the parent is a self-cleaving ribozyme

Variant	self-cleavage
C3A G30A G40U	0.14
C3A C13A G19U U34C C42U	0.29
C3A G7C U38C	0.17
C3A G5A G21A	1.35
C3A G17A G19C	0.09
C3A G21U A25U C31U	0.05
C3A G7A C10G A25G G33C U38G C42G	0.01
C3A G22A G33C	0.15
C3A G30C G35C G40A	0.27
C3A G17U C23G U28A U43A	0.02
C3A C8G U20A U34C	0.08
C3A G17A C42A	0.11
C3A G17A C42U	0.06
C3A G5C G22C	0.05
C3A A26G G27A	0.32
C3A C8A G35U	0.29
C3A G19A A26C G30A	0.63
C3A G17C C46A	0.34
C3A G5C C13G U20C A26U	0.21
C3A G17A A24U A39C	0.07
C3A G17C U28C	0.9

Variant	self-cleavage
C3A C8U C18U G36A G40U G44C	0.21
C3A G7A C15G G44U C46G	0.54
C3A A26C G33A C42U	0.3
C3A C15U C45U	0.88
C3A G21U A39G C42A G44U	0.12
C3A G5A G40A C42U	0.17
C3A C15G A16C U43G	0.01
C3A A41G C46U	0.02
C3A A41G C46A	0.1
C3A G5C G21U U34A	0.14
C3A G5A C18U	0.2
C3A G17U G22U	0.07
C3A G5U A41U	0.08
C3A G29U C37A G44U	0.09
C3A C42U G44C	0.22
C3A C10U C13A	0.44
C3A G7C A11G A12U C15A C18U C46U	0.04
C3A G17C G19C	0.21
C3A C13U U28C G36A A39C	0.27
C3A G17A G33C C42A C46U	0.05
C3A C15G A25U G27A	0.12

Variant	self-cleavage
C3A C13A A26G C31U G44A	0.55
C3A G21U G22U U32A G33A	0.08
C3A C18G A41C	0.1
C3A C15G U32A G35C G40U	0.15
C3A C23G A25U G35A	0.18
C3A C18U U43G	1.94
C3A C18A A25U G29U G40C	0.1
C3A G21A U38A	1.35
C3A C8G G22A U38A	0.01
C3A G7U A25C U32A G44A	0.11
C3A C18G G35U C45A C46A	0.12
C3A C23A U32A G33A	0.14
C3A C10A C13U G22U U32A C37A	0.08
C3A C10U U20A C46A	0.03
C3A G7C A16G G19U G35A A39U	0.03
C3A G5C U9G A26U C37A	0.55
C3A G29A U34A A41C	0.15
C3A A26C G36A	0.49
C3A C8G A12C C15A	0.03
C3A G17C A41G	0.14
C3A G5A C15G	0.07

Variant	self-cleavage
C3A G21U C42U	0.21
C3A C13U A25C A41C G44C	0.07
C3A G7A C10A G19U U20A	0.05
C3A G5U A6U G22A G33A	0.24
C3A A25G C42G	0.02
C3A C8A U20A G44A	0.21
C3A G21A U28A C42A	0.06
C3A C31G U32A U38C	0.04
C3A G17C A41G G44C	0.06
C3A C13A A24U G27U	0.14
C3A G7C A12G C37A	0.13
C3A C10A A14U	0.06
C3A C10U C15A C23U A39G	0.06
C3A C8U A24C C45A	0.11
C3A C23U A25C C45A	0.05
C3A C15U U20G G36A	0.37
C3A G5C A14C C15G	0.28
C3A C8A U28G	1.06
C3A C13G C18A A24U G27C G33U	0.04
C3A G17A C31A	0.2
